Tests used:
ErbB3 = ErbB3 (Homo sapiens, UniProt P21860); test: On-rate and off-rate of H3 arm of H3×B1D2 by BIACore and KinExA; assay type: binding
Source text: (§1) Next, a computational representation of the mechanism by which H3×B1D2 inhibits HRG-dependent signaling of the ErbB pathway was developed. The computational representation of the inhibitor was constructed using mass-action reaction equations that describe the binding of inhibitor to ErbB2 and ErbB3 and subsequent inhibition of HRG-induced signaling. Parameters for the binding events were obtained by a combination of direct measurement (using techniques widely known in the art) and computational training of the model to match data for the inhibition of HRG-induced pErbB3 in cells by H3×B1D2. In particular, the on-rate and off-rate for binding of the H3 single chain arm of the bispecific antibody to ErbB3 and the on-rate and off-rate for the binding of the B1D2 single chain arm of the bispecific antibody to ErbB2 were experimentally determined by standard BIACore and KinExA technology. Reactions and parameters for the computational model of H3×B1D2 appear in Tables 16a and 16b.

ErbB2 = ErbB2 (Homo sapiens, UniProt P04626); test: On-rate and off-rate of B1D2 arm of H3×B1D2 by BIACore and KinExA; assay type: binding
Source text: as §1

h3xb1d2_kr2: reverse parameter, (H3 x B1D2) + E3 <-> (H3 x B1D2):E3 (ErbB3; off-rate from ErbB3): 0.022 s⁻¹ | h3xb1d2_kf2: forward parameter, (H3 x B1D2) + E3 <-> (H3 x B1D2):E3 (ErbB3; on-rate, binding to ErbB3): 3.50E+05 (mol/L)−1sec−1 | h3xb1d2_kr1: reverse parameter, E2 + (H3 x B1D2) <-> E2:(H3 x B1D2) (ErbB2; off-rate from ErbB2): 0.00015 s⁻¹ | h3xb1d2_kf1: forward parameter, E2 + (H3 x B1D2) <-> E2:(H3 x B1D2) (ErbB2; on-rate, binding to ErbB2): 3.13E+04 (mol/L)−1sec−1
B1: H3 x B1D2 (protein)
chain: QVQLQESGGGLVKPGGSLRLSCAASGFTFSSYWMSWVRQAPGKGLEWVANINRDGSASYYVDSVKGRFTISRDDAKNSLYLQMNSLRAEDTAVYYCARDRGVGYFDLWGRGTLVTVSSASTGGGGSGGGGSGGGGSQSALTQPASVSGSPGQSITISCTGTSSDVGGYNFVSWYQQHPGKAPKLMIYDVSDRPSGVSDRFSGSKSGNTASLIISGLQADDEADYYCSSYGSSSTHVIFGGGTKVTVLGAAS[about 600 residues skipped]AAALQVQLVQSGAEVKKPGESLKISCKGSGYSFTSYWIAWVRQMPGKGLEYMGLIYPGDSDTKYSPSFQGQVTISVDKSVSTAYLQWSSLKPSDSAVYFCARHDVGYCTDRTCAKWPEWLGVWGQGTLVTVSSGGGGSSGGGSGGGGSQSVLTQPPSVSAAPGQKVTISCSGSSSNIGNNYVSWYQQLPGTAPKLLIYDHTNRPAGVPDRFSGSKSGTSASLAISGFRSEDEADYYCASWDYTLSGWVFGGGTKLTVLG

From US20170307631A1, “METHODS, SYSTEMS AND PRODUCTS FOR PREDICTING RESPONSE OF TUMOR CELLS TO A THERAPEUTIC AGENT AND TREATING A PATIENT ACCORDING TO THE PREDICTED RESPONSE” (Merrimack Pharmaceuticals, Inc., priority 2008, published 2017)
